Test results as given in PubChem BioAssay AID1347073 (National Center for Advancing Translational Sciences (NCATS), 2019).
Among all 45,000 compounds or so, about 200 (0.44%) were called active. Inconclusive results (about 7%) are left out. Calls come from the whole dose curve; as a rule, active = well fitted activation curve with a large enough effect; inconclusive = small, poorly fitted or top-dose-only effect; inactive = no such curve, though single readings can be large or run the other way. The list shows a part of the results.

Experiment: qHTS of TDP-43 Inhibitors: NCGC Sytravon Library Screen; note: 0% is about no effect; nearly all actives have a fitted effect of over 55% in size
Conditions: yeast TDP-43 toxicity rescue, BacTiter-Glo growth, 24 h; series mostly up to 46.1 µM; growth rescue (activation): at the top concentration
Procedure, shortened: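 TDP-43-expressing yeast, pregrown in raffinose, seeded at OD600 0.02 in galactose medium with compound for 24 hr at 30 deg C. Growth read by BacTiter-Glo luminescence, so rescue of toxicity appears as activation.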

| SMILES | growth rescue (activation) |
| --- | --- |
| CCCc1nc2c(c(=O)c3ccccc3n2C)c(=O)n1-c1ccc(F)cc1 | inactive: 1.1% |
| Cc1ccc(C(O)(C(=O)NN(C(=O)c2ccccc2)c2ccccc2)c2ccc(C)cc2)cc1 | inactive: 25.1% |
| COc1cccc(N(CC(=O)NCc2ccco2)C(=O)CCC(=O)Nc2nccs2)c1 | inactive: -8.7% |
| COc1cc(OC)cc(C(=O)NCCNC(=O)c2ccccn2)c1 | inactive: -11.7% |
| CCCC1(c2ccccc2)NC(=O)N(CCN2C(=O)c3ccccc3C2=O)C1=O (configuration not stated) | inactive: 24.7% |
| COc1cccc(NC(=O)Cc2nc(-c3ccccc3)sc2-c2ccc(C)cc2)c1 | inactive: 3.71% |
| O=C(c1ccccc1)N1CCN(C(=O)c2nn3c(C(F)(F)F)cc(-c4ccccc4)nc3c2Br)CC1 | inactive: 4.88% |
| CCc1ccc(C(O)c2ncc(-c3ccccc3F)[nH]2)cc1 (configuration not stated) | inactive: 7.68% |
| O=C1/C(=C/c2ccsc2)N2CCC1CC2 | inactive: 3.09% |
| Cc1cccc(OCc2nnc(SCC(=O)N3CCCC3)o2)c1 | inactive: -5.8% |
| CCOC(=O)C1(C)CCN1C(=O)c1ccccc1Br (configuration not stated) | inactive: -4.19% |
| Cc1cc(NC(=O)c2ccc(Cl)cc2)c(C)cc1O | inactive: 0.258% |
| CC(=O)/C(N=Nc1ccc2c(c1)OCO2)=C(\C)O | inactive: 10.8% |
| O=c1[nH]nc(SCc2cc(Cl)ccc2Cl)c(=O)[nH]1 | inactive: 7.73% |
| CCN(CC)CCOC(=O)c1ccc(NC(=O)CCCN2C(=O)S/C(=C/c3ccc(OC)cc3)C2=S)cc1 | inactive: 8.63% |
| Cc1ccc(C(O)(C(=O)NNc2ccc3ccccc3n2)c2ccc(C)cc2)cc1 | inactive: 17.4% |
| COc1ccc(S(=O)(=O)N2CCOCC2)cc1NC(=O)CSc1nc(C)c(C)c(C)n1 | inactive: 14.7% |
| CCNS(=O)(=O)c1ccc(CCC(=O)O)cc1 | inactive: -8.34% |
| CC(=O)NC(c1cccc(F)c1)c1nc(-c2csc3ccccc23)cs1 (configuration not stated) | inactive: 9.07% |
| CCOc1ccc(S(=O)(=O)N2CCCC(C(=O)N3CCN(CC)CC3)C2)cc1Cl (configuration not stated) | inactive: 3.28% |
| CCCC1=NN(c2ccc([N+](=O)[O-])cc2)C(=O)/C1=C\N(C)C | inactive: 13.8% |
| CCOC(=O)C1(CCc2ccccc2)CCN(C(=O)CN2CCOC2=O)CC1 | inactive: 9.08% |

| SMILES | growth rescue (activation) |
| --- | --- |
| COc1ccc(Cn2nnnc2C(c2cc3cccc(C)c3[nH]c2=O)N2CCN(C)CC2)cc1 (configuration not stated) | inactive: 6.97% |
| Cc1ccc(Cc2cnc(NC(=O)/C(C#N)=C/c3ccc(-c4ccccc4[N+](=O)[O-])o3)s2)cc1 | inactive: 28.6% |
| CC(C)c1ccc(NCCC(=O)c2cccs2)cc1 | inactive: 20.1% |
| COc1ccc(C(=O)Nc2noc3ccccc23)cc1 | inactive: 4.47% |
| C=CCC1(CC=C)CCCN1C(=O)CC1C(=O)NCCN1Cc1cc(OC)cc(OC)c1 (configuration not stated) | inactive: 7.9% |
| Cc1cc(C)n(C(=O)CNC(=O)c2ccc(Cl)cc2Cl)n1 | inactive: 22.7% |
| CCCSCC(=O)Nc1ncc2c(n1)-c1ccccc1CC2 | inactive: 10.3% |
| O=C(CCCn1c(=O)c2sccc2n(Cc2cccc(Cl)c2)c1=O)NCc1ccc2c(c1)OCO2 | inactive: 15.4% |
| Cc1ccccc1C(=O)NC1CC2CCCC(C1)N2C(=O)Nc1ccccc1 (configuration not stated) | inactive: 1.85% |
| c1nc(N2CCC3(CC2)OCCO3)c2[nH]cnc2n1 | inactive: 17.1% |
| COCCOC(=O)c1sc2nc[nH]c(=O)c2c1C | inactive: -18.8% |
| CCOC(=O)c1ccc(NC(=S)N2CCCC(C(=O)N3CCCC3)C2)cc1 (configuration not stated) | inactive: 8.49% |
| O=C(CCCN1C(=O)c2ccccc2C1=O)Nc1nncs1 | inactive: 2.87% |
| NS(=O)(=O)c1ccc(CCNC(=O)c2cc(=O)[nH]c3ccccc23)cc1 | inactive: -5.18% |
| CS(=O)(=O)c1ccc(NCC2CCCO2)c([N+](=O)[O-])c1 (configuration not stated) | inactive: -13.3% |
| COc1cccc(NC(=S)N2C3CCCC2CC(NC(=O)C2CC2)C3)c1 (configuration not stated) | inactive: -1.65% |
| Cc1c(C(=O)CN2CCN(c3ccccc3)CC2)c2ccccc2n1C | inactive: 7% |
| N#C/C(=C/c1ccco1)C(N)=S | inactive: 6.85% |
| CCN1CCCc2cc(CN(CCN3CCOCC3)C(=S)Nc3cccc(Cl)c3)ccc21 | inactive: -10.4% |
| CN(C)S(=O)(=O)c1ccc(Cl)c(NC(=O)CN2C(=O)NC3(CCCC3)C2=O)c1 | inactive: -4.69% |
| Cc1ccc(S(=O)(=O)/N=C(/c2ccc(F)cc2)N(C)C)cc1 | inactive: 2.85% |
| COC(=O)c1ccc(C(=O)OC)c(NC(=O)CSc2n[nH]c(N)n2)c1 | inactive: 2.71% |

| SMILES | growth rescue (activation) |
| --- | --- |
| O=C(CN1CCN(Cc2ccc(Cl)cc2)CC1)N1CCc2ccccc21 | inactive: 1.49% |
| O=c1/c(=C/c2ccc(O)c([N+](=O)[O-])c2)sc2nc3ccccc3n12 | inactive: -6.07% |
| COc1ccccc1N(CC(=O)NCCN1CCOCC1)S(=O)(=O)c1ccccc1 | inactive: -2.08% |
| O=C(NCC1CCCO1)c1nc(Cn2ccc([N+](=O)[O-])n2)no1 (configuration not stated) | inactive: 8.2% |
| OC(CNCC1CCCCC1)COc1ccccc1 (configuration not stated) | inactive: -2.62% |
| O=C(NCCc1ccccc1)c1ccc2c(c1)OCO2 | inactive: -4.96% |
| Cc1cccc(-c2nc3c(c(=O)c4ccccc4n3C)c(=O)n2-c2ccccc2)c1 | inactive: 2.5% |
| Cc1cc(=O)[nH]c(N/N=C/c2ccc(-c3ccc([N+](=O)[O-])cc3)o2)n1 | inactive: -0.0333% |
| O=C(CCn1c(=O)c2sccc2n(Cc2cccc(F)c2)c1=O)NCc1ccc2c(c1)OCO2 | inactive: 12.4% |
| Cc1cc(C)c(C(=O)COC(=O)CN2C(=O)NC3(CCCC3)C2=O)cc1C | inactive: 4.19% |
| COc1ccc(C(=O)NCCNC(=O)c2ccc(C)nc2)cc1 | inactive: -4.87% |
| Cc1cc(C)n2c(SCC(=O)Nc3cc(S(=O)(=O)N(C)C)ccc3C)nnc2n1 | inactive: 11.4% |
| COc1ccc(NC(=O)N2CCCC2C(=O)Nc2cccc(C)c2C)cc1 (configuration not stated) | inactive: 4.99% |
| O=C(CN1C(=O)COc2ccc(S(=O)(=O)N3CCCC3)cc21)NCc1ccccn1 | inactive: -13.7% |
| O=C(Nc1nc(-c2ccccc2)cs1)c1cccc(S(=O)(=O)N2CCN(Cc3ccccc3)CC2)c1 | inactive: 12.8% |
| Cc1ccc(Oc2ccc(Cl)cc2NC(=O)c2cnccn2)cc1 | inactive: -9.88% |
| Cc1cccc(OCCOC(=O)c2c(-c3ccccc3)noc2C)c1 | inactive: 13.7% |
| CCOC(=O)C1CCN(C(=O)CN2C(=O)NC(C)(c3ccc4cc(OC)ccc4c3)C2=O)CC1 (configuration not stated) | inactive: 4.15% |
| CC(C)Cc1nc(C#N)c(N2CCC(C(N)=O)CC2)o1 | inactive: 5.34% |
| COc1ccc(C(=O)Nc2c(-c3cccs3)c(=O)c3ccccc3n2C)cc1 | inactive: 0.999% |
| O=C(NNC(=S)NCCc1ccccc1)c1ccc(Br)s1 | inactive: 16.4% |
| O=C(Nc1nc2ccc([N+](=O)[O-])cc2s1)c1ccncc1 | inactive: 4.43% |

| SMILES | growth rescue (activation) |
| --- | --- |
| COc1cc(NC(=S)NC(=O)CC(C)C)ccc1NC(=O)c1cc2ccccc2o1 | inactive: 0.275% |
| Cc1cc(C(=O)CSc2nnc(-c3ccco3)o2)c(C)n1CC1COc2ccccc2O1 (configuration not stated) | inactive: 22.7% |
| COc1ccc([N+](=O)[O-])cc1NC(=O)CCS(=O)(=O)c1ccc(Br)cc1 | inactive: -5.42% |
| O=C(CN1CCSCC1)N/N=C/c1cccc(Cl)c1 | inactive: -1.38% |
| COc1ccc(CNC(=O)c2cncc(Br)c2)cc1 | inactive: -15.1% |
| Cc1cccc([N+](=O)[O-])c1NC(=O)CN(Cc1ccccc1)Cc1ccccc1 | inactive: -6.18% |
| O=C(NCCN1CCOCC1)C(=O)NCc1ccc2c(c1)OCO2 | inactive: -17% |
| Cc1ccc(CNS(=O)(=O)NCc2ccccc2F)cc1 | inactive: 19.8% |
| N#Cc1c(-c2ccccc2)cc(-c2ccccc2)nc1Br | inactive: -19.4% |
| CCOc1ccc(NS(=O)(=O)c2ccc3[nH]c(=O)cc(C(=O)O)c3c2)cc1 | inactive: 0.49% |
| Cc1ccc(NC(=O)C2CCN(S(=O)(=O)c3cccc4nonc34)CC2)cc1 | inactive: 16.5% |
| COc1cccc(C(=O)N2CCN(C3CCCCC3)CC2)c1 | inactive: -6.21% |
| Cc1cccc(N2C(=O)c3cccc4c(N)ccc(c34)C2=O)c1 | inactive: 7.01% |
| N#Cc1c(NC(=O)COC(=O)c2ccc(S(=O)(=O)N3CCCC3)cc2)sc2c1CCCCC2 | inactive: -4.63% |
| O=C(/C=C/Nc1ccc(Oc2ccccc2Cl)cc1)c1ccco1 | inactive: 5.17% |
| Cc1nc(Cl)cc(N/N=C/c2ccc(O)cc2O)n1 | inactive: 0.669% |
| N#CC1(c2ccccc2)CCC(=O)N1Cc1ccccc1 (configuration not stated) | inactive: -9.25% |
| CS(=O)(=O)c1ccc(C(=O)Nc2ccc(N3CCOCC3)cc2)c(Cl)c1 | inactive: -6.58% |
| Cc1oc2ccc(O)c(CN(C)C)c2c1C(=O)c1ccccc1 | inactive: 0.641% |
| CCc1nc2ccc(C(=O)Nc3ccc(C(N)=O)cc3)cn2c1N(C)CCC(C)C | inactive: 7.06% |
| CC(=O)c1c(C)[nH]c(C(=O)CSc2nnc(N)s2)c1C | inactive: 2.39% |
| O=C(/C=C/c1ccco1)N1CCN(c2ccc(F)cc2)CC1 | inactive: 10.1% |

| SMILES | growth rescue (activation) |
| --- | --- |
| O=C(CNCc1ccc(Cl)cc1)Nc1cccc(C(=O)O)c1 | inactive: -16.6% |
| O=C(Cn1c2c(sc1=O)C1c3ccccc3OCC1CS2)Nc1ccc(Cl)c(Cl)c1 (configuration not stated) | inactive: -10.9% |
| COc1ccc2nc(N/C(=N/S(=O)(=O)c3cccs3)c3ccccc3Cl)sc2c1 | inactive: 2.42% |
| O=C(CN1CCN(C(=O)C2CCCO2)CC1)Nc1ccc(Cl)cc1 (configuration not stated) | inactive: 11.9% |
| CC(=O)n1c(C=Nc2ccc(Cl)cc2)c(O)c2ccccc21 | inactive: 7.97% |
| Cc1ccccc1NC(=S)N(Cc1ccco1)C(C)c1ccccn1 (configuration not stated) | inactive: -3.63% |
| COc1ccc(CNC(=O)C/C(C)=N/NC(=O)c2cnccn2)cc1 | inactive: 22.2% |
| O=C(NNc1ccccc1)Nc1ccccc1F | inactive: -59.2% |
| CC1CCN(C(=O)c2ccc3c(c2)OCCO3)CC1 | inactive: 12% |
| CCOc1ccccc1NC(=S)C(=C([O-])c1ccc2c(c1)OCCO2)[n+]1ccc(CC)cc1 | inactive: -3.24% |
| CCC1CCCCN1S(=O)(=O)c1ccc(NC(=O)C2CC(=O)N(C(C)(C)C)C2)cc1 (configuration not stated) | inactive: 5.74% |
| Cc1nc(Nc2ccc(Cl)cc2)c2oc3ccccc3c2n1 | inactive: 7.63% |
| CCOc1ccc(CCNC(=O)COC(=O)c2ccccc2O)cc1OCC | inactive: 21.4% |
| COc1ccc2c(CSc3nnc(-c4cccnc4)n3-c3ccccc3F)cc(=O)oc2c1 | inactive: 3.07% |
| COc1ccc(-n2cnnc2SCC(=O)N(C)c2ccccc2)cc1 | inactive: -21.7% |
| Cc1ccc(NC(=O)C2C3C=CC(O3)C2C(=O)O)c(C)c1 (configuration not stated) | inactive: 3.29% |
| COc1cccc(OC)c1OCCCOc1ccc(C)cc1Br | inactive: -12.1% |
| CCn1c(SCC(=O)N/N=C/C=C/c2ccco2)nnc1-c1ccccc1 | inactive: -16.8% |
| CC(C)N1CCN(Cc2cnc(-c3ccccc3)s2)CC1CCO (configuration not stated) | inactive: 0.449% |
